Data taken from the BET-seq Pho4 binding data (Le et al. 2018).
The list shows a part of the results. These are noisy estimates, calculated here from bound and input reads.

These sequences were tested against T1, Pho4 (S. cerevisiae) (UniProt P07270) (assay: relative binding free energy (BET-seq); higher = weaker binding). Conditions: reference: library average.
T1 sequence: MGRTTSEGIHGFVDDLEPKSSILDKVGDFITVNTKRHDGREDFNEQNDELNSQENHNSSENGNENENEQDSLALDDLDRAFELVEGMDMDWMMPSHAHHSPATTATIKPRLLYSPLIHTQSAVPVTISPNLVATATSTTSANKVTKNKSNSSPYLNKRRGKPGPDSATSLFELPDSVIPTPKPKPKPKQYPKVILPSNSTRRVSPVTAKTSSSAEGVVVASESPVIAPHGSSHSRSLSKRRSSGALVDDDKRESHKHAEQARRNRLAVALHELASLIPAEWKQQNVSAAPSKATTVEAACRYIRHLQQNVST

| Sequence | relative binding free energy |
| --- | --- |
| CGTTTCACGTGGTGGA | 0.39 kcal/mol |
| GATGACACGTGGTGTA | -0.06 kcal/mol |
| GTTGACACGTGGTTCT | -0.05 kcal/mol |
| TTGATCACGTGGGAGG | 0.07 kcal/mol |
| TGGTACACGTGGATAG | 0.09 kcal/mol |
| GGGCACACGTGTAGTT | 0.19 kcal/mol |
| GGTGGCACGTGTCGGG | 0 kcal/mol |
| AGATACACGTGGTAGA | -0.03 kcal/mol |
| ATAATCACGTGAGCGG | 0.37 kcal/mol |
| GATGGCACGTGTGGAT | -0.13 kcal/mol |
| GGGGACACGTGTGCGC | 0.05 kcal/mol |
| ATATGCACGTGATTGA | -0.02 kcal/mol |
| TTAGACACGTGAATAG | 0.2 kcal/mol |
| ATGGTCACGTGGAGCG | 0.14 kcal/mol |
| TGAATCACGTGGTTTG | 0.16 kcal/mol |
| GGAGGCACGTGATGTC | -0.03 kcal/mol |
| GGGCTCACGTGGGGTC | 0.19 kcal/mol |
| AGTGGCACGTGGTGCA | -0.1 kcal/mol |
| ACGGTCACGTGTGGCT | 0.09 kcal/mol |
| TTTTGCACGTGACTAT | 0.04 kcal/mol |
| TTCGTCACGTGTTTTA | 0.03 kcal/mol |

| Sequence | relative binding free energy |
| --- | --- |
| GTGCTCACGTGATGGT | 0.32 kcal/mol |
| ACTTGCACGTGATTTT | 0.05 kcal/mol |
| TAGATCACGTGTATTT | 0.08 kcal/mol |
| CTGTTCACGTGGAAGT | 0.34 kcal/mol |
| ATGTTCACGTGGCCGG | 0.09 kcal/mol |
| GGGTGCACGTGGAATT | -0.01 kcal/mol |
| AGGTTCACGTGAGAAT | 0.35 kcal/mol |
| TCGAGCACGTGAGGGC | 0.25 kcal/mol |
| GTTGGCACGTGTGCTA | -0.02 kcal/mol |
| CTCGTCACGTGTAGGG | -0.04 kcal/mol |
| CGGCACACGTGGGATG | 0.02 kcal/mol |
| TAACGCACGTGGAGGG | -0.03 kcal/mol |
| ATTGACACGTGTGAAT | 0.08 kcal/mol |
| GTGGGCACGTGCATAT | -0.15 kcal/mol |
| TAGTACACGTGGGAGA | 0.01 kcal/mol |
| CTTGGCACGTGGAACG | 0.03 kcal/mol |
| CTATACACGTGGGGTT | -0.16 kcal/mol |
| AGTTTCACGTGAAAAT | 0.43 kcal/mol |
| TCGGTCACGTGAAGGA | 0.18 kcal/mol |
| TTATTCACGTGAGTCT | 0.48 kcal/mol |
| AAGTTCACGTGTTAGT | 0.27 kcal/mol |

| Sequence | relative binding free energy |
| --- | --- |
| AGGATCACGTGAAGGC | 0.37 kcal/mol |
| TACGGCACGTGAGGTC | 0.17 kcal/mol |
| TAGCGCACGTGTGTAG | -0.08 kcal/mol |
| GGTGGCACGTGAAGGA | 0.19 kcal/mol |
| CGTTTCACGTGGGGCA | 0.15 kcal/mol |
| ATTGACACGTGGGAGT | -0.2 kcal/mol |
| ATGCTCACGTGGGAGG | 0.17 kcal/mol |
| TGAAGCACGTGTTGTT | -0.07 kcal/mol |
| TTTCGCACGTGTGGTT | -0.03 kcal/mol |
| AATGACACGTGTCTGG | 0.11 kcal/mol |
| GGGGACACGTGGGTTT | -0.06 kcal/mol |
| TGCTGCACGTGTTGGA | 0 kcal/mol |
| ACTATCACGTGGTAGT | 0.06 kcal/mol |
| AGTTACACGTGCCTGG | 0.13 kcal/mol |
| GTGTACACGTGTTTAT | -0.07 kcal/mol |
| GTAGACACGTGCGTAT | 0.05 kcal/mol |
| TATTACACGTGTAGAT | 0.33 kcal/mol |
| TGCGTCACGTGTTTAT | 0.14 kcal/mol |
| CGGCTCACGTGGTTTG | 0.13 kcal/mol |
| GCTAGCACGTGGGGGC | -0.17 kcal/mol |
| AGTGCCACGTGGTGGT | -0.12 kcal/mol |
